# Results reported in PubChem BioAssay AID493208 (National Center for Advancing Translational Sciences (NCATS), 2011).
# The whole screen tested about 44,000 compounds, of which about 340 (0.77%) were called active. Inconclusive results (about 5%) are left out. Calls follow the shape of the dose curve; as a rule, active = well fitted inhibition curve with a large enough effect; inconclusive = small, poorly fitted or top-dose-only effect; inactive = flat fitted curve, though single readings scatter. This is one part of the list.
# Test: Acumen qHTS Assay for Inhibitors of the mTORC1 Signaling Pathway in MEF (Tsc2-/-, p53-/-) Cells: Sytravon; also: nearly all actives have a fitted effect of over 50% in size;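 as to activity change, negative = inhibition: plate controls were DMSO for no effect and rapamycin for full effect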
# Details: phospho-rpS6 immunofluorescence/PI, 24 h; series mostly up to 38.3 µM; activity change, negative = inhibition: at the top concentration
# In short: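 Read-out: phospho-S6 Alexa-488 intensity over PI intensity per well, scored as % active cells using thresholds from rapamycin (7.5 nM) and DMSO controls. Tsc2-/-, p53-/- MEFs exposed to compound for 24 h; PI cell count recorded as viability.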
# Potency is read from the fitted curve at half-maximal effect.
Compound,"activity change, negative = inhibition",Potency
COc1ccc(S(=O)(=O)Nc2ccc3c(c2)sc(=O)n3C)cc1Cl,inactive: -14.2%,
COc1ccc(Nc2ncnc3c2cnn3-c2cc(Cl)ccc2C)cc1OC,inactive: -12%,
Cc1cccc(-c2nc(SCCCOc3cc(C)c(Cl)c(C)c3)n3[nH]c(=O)cc3n2)c1,inactive: -0.998%,
CCOc1ccc(OCCOCCn2c(-c3ccc(Cl)cc3)nc3ccccc3c2=O)cc1,inactive: -6.14%,
CSc1ncc(C(=O)NCc2ccc(F)cc2)c(-c2ccccc2)n1,inactive: -2.74%,
CCCCN(CC)CCCNC(=O)Cn1nc(CC)n2c(cc3sccc32)c1=O,inactive: 3.59%,
CCOC(=O)c1ccc(NC(=O)CCCn2nc(C)c3sc4ccccc4c3c2=O)cc1,inactive: 0.554%,
COc1ccc2c(c1)c1c(c(=O)n(CCc3ccccc3)c(=O)n1Cc1cccc(C)c1)n2C,inactive: -7.99%,
Cc1ccc(C(=O)OC2=C(C(=O)c3ccccc3)N(C)S(=O)(=O)c3ccccc32)cc1,inactive: 1.12%,
COC(=O)CC(=O)CSc1nc2cc(C(=O)NC(C)C)ccc2c(=O)n1CCc1ccccc1,inactive: 0%,
O=C(Cc1ccc(-c2ccccc2)cc1)NCCS(=O)(=O)N1CCN(c2cccc(Cl)c2)CC1,inactive: -5.97%,
CCN(C(=O)CSc1nnc(-c2cc3occc3n2C)n1-c1ccccc1C)c1ccccc1,inactive: -1.95%,
O=C(CN1C(=O)COc2ccc(S(=O)(=O)N3CCOCC3)cc21)NCc1ccc(Cl)cc1,inactive: -0.142%,
Cc1nc2cc(-c3ccc(Cl)cc3)nn2c(C)c1CCC(=O)N1CCN(c2ccccc2)CC1,inactive: 1.8%,
CS(=O)(=O)c1ncc(Cl)c(C(=O)N2CCN(c3cccc(Cl)c3)CC2)n1,,active: 0.464 µM
Cc1oc2ncn(CC(C)C)c(=O)c2c1C(=O)NCc1cccc(Cl)c1,inactive: 3.22%,
CCOc1ccc(Nc2sc(C(=O)c3ccc(F)cc3)c(N)c2S(=O)(=O)c2ccc(C)cc2)cc1,inactive: -14.2%,
CCOc1ccc(C2C(=O)N(C3CCCCC3)CC(=O)N2Cc2ccccc2OC)cc1OC (stereo not drawn),inactive: 12.7%,
CC(C)Oc1ccc(CNC(=O)c2cc3cccc4c3n2CC(C)S4)cc1 (stereo not drawn),inactive: -8.59%,
CCc1ccc(-c2nc3c(c(SCc4ccccc4)n2)Cc2c(CO)cnc(C)c2O3)cc1,inactive: -0.125%,
Cc1ccc(-c2onc(C)c2C)cc1S(=O)(=O)N1CCC(C)CC1,inactive: -3.2%,
Cc1ccc(Cn2c(C(=O)Nc3ccc(Cl)cc3)cc3sccc32)cc1,inactive: -10.4%,
COc1ccc(Cl)cc1NC(=O)c1ccc(CN2C(=O)CCn3nc(C)cc32)cc1,inactive: -5.15%,
COc1cc(Cl)c(C)cc1NC(=O)CNC(=O)Cn1ccc2ccccc2c1=O,inactive: -9.92%,
COc1ccc(C2c3c(n(C)c4ccccc34)C(=O)N2CC(=O)Nc2c(C)cc(C)cc2C)cc1 (stereo not drawn),inactive: 0.147%,

Compound,"activity change, negative = inhibition",Potency
CC(C)Cn1cc(NC(=O)NCc2ccc(Cl)cc2)c2ccccc2c1=O,inactive: -6.76%,
CCC(=O)N1c2ccccc2CC1C(=O)NCCCN1CCN(c2cccc(Cl)c2)CC1 (stereo not drawn),inactive: 0%,
Cc1ccc(C)c(NC(=O)CSc2nc(=O)n(CCN3CCOCC3)c3c2CCC3)c1,inactive: -0.493%,
Cc1c(C(=O)NCc2ccccc2Cl)sc2nc3n(c(=O)c12)CCCC3,inactive: 2.98%,
CCOc1ccccc1CNC(=O)C(CC)n1nc(C)c2c(C)n(-c3ccccc3)nc2c1=O (stereo not drawn),inactive: -8.8%,
COc1ccc(Br)c2c1-c1nc(NC(=O)c3ccc(F)cc3)sc1C2,inactive: 3.13%,
CCOC(=O)N1CCC(NC(=O)c2ccc3c(c2)N(Cc2ccccc2)C(=O)c2ccccc2S3(=O)=O)CC1,inactive: -0.0534%,
Cc1ccc2c(c1)C(=O)OC(C(=O)Nc1ccc(C(=O)O)cc1)C2 (stereo not drawn),inactive: -12.1%,
O=C(Nc1ccc(Cl)cc1)c1ccc2oc(=O)n(Cc3ccccc3)c2c1,inactive: -14.3%,
COc1ccc(C(=O)CN2CCN(S(=O)(=O)c3ccc(F)cc3)CC2)cc1,inactive: -6.43%,
CC(=O)N1CCC2(CC1)OC(=O)C(C)=C2C(=O)NCc1ccccc1Cl,inactive: 6.2%,
COc1ccc(-c2cn3c(n2)sc2cc(C(=O)Nc4ccc(F)cc4)ccc23)cc1,inactive: 4.86%,
Cc1cc(NC(=O)c2ccc(F)cc2)ccc1-c1cc2ccccc2oc1=O,inactive: 15%,
Cc1ccc(Cl)cc1NC(=O)c1csnn1,inactive: -3.03%,
CC(=O)OC1=C(C(C)=O)N(Cc2ccccc2)S(=O)(=O)c2ccccc21,inactive: -2.74%,
CC1CCN(C(=O)CCS(=O)(=O)c2cc3c(cc2Cl)NC(=O)CO3)CC1,inactive: -4.91%,
CCOC(=O)c1nnn(CC(=O)NC(=O)Nc2ccccc2F)c1C(=O)OCC,inactive: -9.38%,
CCCCSc1nnc2[nH]c(=O)cc(C)n12,inactive: 0.558%,
O=C(c1cc(-c2ccc(Br)cc2)n[nH]1)N1CCN(S(=O)(=O)c2ccc(Br)s2)CC1,inactive: -21.2%,
CCN(CC)S(=O)(=O)c1ccc(NC(=O)c2nn(C)c3c2CSc2ccccc2-3)cc1,inactive: 2.51%,
Cc1cccc(CC(=O)NC2CC(=O)N(c3ccc4c(c3)OCCO4)C2)c1 (stereo not drawn),inactive: 1.7%,
Fc1ccc(Nc2nc(SCc3cccc(F)c3)nc3ccccc23)cc1,inactive: 1.66%,
Cc1ccccc1CSc1ncc(Cl)c(C(=O)NCc2ccccc2)n1,inactive: -0.84%,
CCOC(=O)c1ccc(N2C(=O)c3[nH]nc(-c4ccc(C)cc4)c3C2c2ccc(O)cc2)cc1 (stereo not drawn),inactive: -1.8%,
CCC(=O)N1CCc2cc(Br)cc(S(=O)(=O)CCC(=O)Nc3ccc(CC)cc3)c21,inactive: -1.05%,

Compound,"activity change, negative = inhibition",Potency
Cc1cc(Br)cc(C)c1NC(=O)c1cnc2ccccn2c1=O,inactive: -0.951%,
COc1ccc(NC(=O)C(NC(=O)Cc2cccs2)c2ccc(OC)cc2)cc1 (stereo not drawn),inactive: -9.22%,
Cn1c2c(c(=O)n(C)c1=O)C(c1cccc(O)c1)CC(=O)N2 (stereo not drawn),inactive: 7.17%,
COc1cccc(NS(=O)(=O)c2ccc3[nH]c4c(c3c2)CCCCCC4)c1,inactive: -27.5%,
CCc1ccc(CN(C(=O)c2ccc(OC)cc2)C2CCS(=O)(=O)C2)cc1 (stereo not drawn),inactive: -0.557%,
CCOC(=O)c1ccc(NC(=O)CC2Nc3cccc4cccc(c34)NC2=O)cc1 (stereo not drawn),inactive: -8.04%,
Cc1noc(C)c1S(=O)(=O)Nc1ccc(C(=O)Nc2ccc(C(C)C)cc2)cc1,inactive: -1.68%,
COc1ccc(-c2onc(C)c2C)cc1S(=O)(=O)N1CCc2ccccc21,inactive: -16%,
COc1cc2c(cc1NC(=O)COc1ccc(Br)c(C)c1)oc1ccccc12,inactive: -2.19%,
CCC12CN3CC(CC)(CN(C1)C3c1cccc(OC)c1O)C2=O (stereo not drawn),inactive: 1.21%,
Cc1ccc2nc(N(Cc3cccnc3)C(=O)c3ccco3)sc2c1,inactive: 1.15%,
COc1ccc(-c2c(C)c3ccc(O)c(CN4CCCCC4)c3oc2=O)cc1OC,inactive: 6.59%,
CCc1ccc(-n2c(SCc3nc(-c4cc(OC)ccc4OC)no3)nnc2-c2ccccc2)cc1,inactive: -4.12%,
COc1ccc(C2=CC(c3ccccc3Cl)n3nc(-c4ccc(C)cc4)nc3N2)cc1 (stereo not drawn),inactive: -3.97%,
CCOC(=O)c1c(NC(=O)CCCOc2ccc(C)cc2)sc2c1CCC(C)C2 (stereo not drawn),inactive: -6.59%,
CCc1ccc(CNC(=O)c2ccc(CS(=O)c3ccc(Br)cc3)o2)cc1 (stereo not drawn),inactive: -1.56%,
CCc1nnc(SCC(=O)Nc2ccc(Cl)cc2F)c2cc3occc3n12,inactive: -11.8%,
CCOC(=O)Cn1c(=O)n(-c2ccccc2OC)c2nc(-c3ccccc3)nc(C(N)=O)c21,inactive: 7.14%,
Cc1cccc(N2CCN(C(=O)c3cn(C)c4ccc(S(=O)(=O)N(C)C)cc4c3=O)CC2C)c1 (stereo not drawn),inactive: -0.862%,
CCn1c(C(=O)NCc2ccc(C)cc2)cc2sc(Cl)cc21,inactive: -18.9%,
COc1ccc(-c2nc3ccccc3s2)cc1NC(=O)c1ccc(C#N)cc1F,inactive: 7.68%,
CCOCCc1nn2c(=O)cc(COC(=O)COc3ccc(C)c(C)c3)nc2s1,inactive: -13.5%,
CC(C)c1ccc(NC(=O)c2ccc3oc(=O)c(S(=O)(=O)c4ccc(F)cc4)cc3c2)cc1,inactive: -3.54%,
COc1cn(CC(=O)Nc2c(C)cc(C)cc2C)c(CN2CCCCC2)cc1=O,inactive: 0.429%,
CCOc1ccc(S(=O)(=O)NCCc2csc3nc(-c4ccc(OC)c(OC)c4)nn23)cc1,inactive: -11.8%,

Compound,"activity change, negative = inhibition",Potency
CCc1ccc(NC(=O)CC2C(=O)NCCN2C(=O)c2ccccc2OC)cc1 (stereo not drawn),inactive: 1.84%,
Cc1nc(SCc2cc(=O)c3cccc(F)c3[nH]2)n[nH]1,inactive: 0.682%,
CC(C)c1ccc(NC(=O)CSc2ncnc3c2sc2ccccc23)cc1,inactive: 0.128%,
COc1ccccc1CNCc1ccc(C(=O)O)s1,inactive: 3.47%,
Clc1cccc(CSc2nc(NCCc3ccccc3)c3ccccc3n2)c1,inactive: -11.9%,
COc1ccc(NC(=O)Cn2ncc3c(C)n(Cc4cccc(Cl)c4)c(C)c3c2=O)cc1,inactive: -0.902%,
COc1c(C)cccc1C(=O)Nc1ccc(Cl)c(-c2nc3cc(C)ccc3o2)c1,inactive: -9.15%,
COc1ccc(-c2nc3sc(CCNC(=O)Cc4ccc(Cl)cc4)c(C)n3n2)cc1,inactive: -0.525%,
CCOc1ccc(CCNC(=O)CSc2nc3ccccc3nc2Cc2ccc(C)cc2)cc1OCC,inactive: -14.1%,
CC(C)CCOc1ccc(Cn2c(=O)sc3ccccc32)cc1,inactive: -1.26%,
CCN(CC)c1ccc(NC(=O)CN(C)S(=O)(=O)c2cccc3nsnc23)c(C)c1,inactive: -13.7%,
CCOc1ccc(C2C(=O)N(C3CCCCCC3)CC(=O)N2Cc2ccc(F)cc2)cc1OC (stereo not drawn),inactive: -1.82%,
CCN(CC)c1ccc(C(=O)NCc2ccc3c(c2)CCN3C(=O)c2cccc(C)c2)cc1,inactive: -1.45%,
CCOc1ccc(CCNC(=O)C(CC(C)C)N2Cc3ccccc3C2=O)cc1OCC (stereo not drawn),inactive: -2.54%,
Cc1ccccc1CN1C(=O)c2ccccc2Sc2ccc(C(=O)O)cc21,inactive: -9.27%,
CCOc1ccc(NC(=O)CCc2nc3cccnc3n2Cc2ccc(OC)cc2)cc1,inactive: -5.14%,
Cc1ccc(CS(=O)Cc2ccc(C(=O)NCc3ccccc3Cl)o2)cc1 (stereo not drawn),inactive: -12.5%,
Nc1nnc(SCC(=O)Nc2cccc(F)c2)s1,inactive: -29.4%,
Clc1ccc(Nc2nc(-c3ccccc3)c3ccccc3n2)c(Cl)c1,inactive: 7.74%,
O=S(=O)(c1cc(Br)c(Br)s1)N1CCN(c2ccccc2)CC1,inactive: 3.84%,
COc1ccccc1C(=O)Nc1cccc(OCc2cc(=O)n3c(C)csc3n2)c1,inactive: -28.8%,
Cc1ccc(S(=O)(=O)c2nnn3c2nc(NCc2ccccc2)c2sccc23)cc1,inactive: 5.4%,
CC(C)c1ccc(NC(=O)C2CCN(S(=O)(=O)c3ccc(Br)s3)CC2)cc1,inactive: -0.78%,
